Data on 32 sequences can be found in the supplement of paper PMC12645437, “Orthogonal IMiD-Degron Pairs Induce Selective Protein Degradation in Cells” (ACS Chemical Biology, 2025).

Some of the results follow.
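Note: jurkat cells carrying a lentiviral library of mutant zinc finger degrons fused to EGFP plus mCherry, mCherry+ cells FACS sorted, degron abundance counted by next-generation sequencing.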

In this experiment the target is no compound (DMSO). Description: log2 fold change of degron read counts, EGFP-low vs EGFP+ sorted cells; higher = lower degron-EGFP level without compound (poor expression or instability). The note with it: compound: DMSO control; 18 h.
Regarding FVCNVCGANFTQKGNLLRHIKL, the “log2 fold change of degron read counts” value was -1.03.
The figure for FMCNVCGAKFTQKGNLLRHIKL is -0.424; for FHCPVCGASFTQKGNLLRHIKL it is -0.782.
The figure for FFCEVCGANFTQKGNLLRHIKL is -0.844; for FNCDQCGAWFTQKGNLLRHIKL it is -0.19; for LHCEICGFSCTQKGNLLRHIKL it is -0.358.
The figure for FWCPICGARFTQKGNLLRHIKL is 0.128.
As to FICPICGASFTQKGNLLRHIKL, the “log2 fold change of degron read counts” value was -0.299.
The figure for FSCPICGHKFTQKGNLLRHIKL is -0.447; for FLCPICGHNFTQKGNLLRHIKL it is 0.529.
The figure for FICPICGHPFTQKGNLLRHIKL is -0.681; for FWCEICGRPFTQKGNLLRHIKL it is 0.221; for FWCDQCGASFTQKGNLLRHIKL it is -1.34.
For the sequence FDCDVCGADFTQKGNLLRHIKL, the “log2 fold change of degron read counts” value is -0.894.
The figure for FACEVCGAAFTQKGNLLRHIKL is -1.67; for FYCPICGHEFTQKGNLLRHIKL it is -0.225; for FQCNQCGARFTQKGNLLRHIKL it is -0.154.
The figure for FNCDQCGAPFTQKGNLLRHIKL is -1.73; for FICDICGAMFTQKGNLLRHIKL it is -1.17.
The figure for FRCDVCGAIFTQKGNLLRHIKL is -0.778.
Take FCCPICGHSFTQKGNLLRHIKL: the “log2 fold change of degron read counts” value was -0.384.
The figure for FQCDQCGATFTQKGNLLRHIKL is -1.9.
For FWCPICGHMFTQKGNLLRHIKL, the “log2 fold change of degron read counts” value is 2.02.
Take FKCEICGRTFTQKGNLLRHIKL: the “log2 fold change of degron read counts” value is -1.27.
The figure for LCCPICGFVCTQKGNLLRHIKL is 1.2; for FVCEICGHHFTQKGNLLRHIKL it is -2.51; for FLCEICGHGFTQKGNLLRHIKL it is -2.58.
The figure for FECDVCGATFTQKGNLLRHIKL is -1.11; for FICNQCGAHFTQKGNLLRHIKL it is -0.239; for FVCPQCGAPFTQKGNLLRHIKL it is 0.102.
For FRCDICGAIFTQKGNLLRHIKL, the “log2 fold change of degron read counts” value was -0.612.
The figure for FICNQCGRYFTQKGNLLRHIKL is 0.844.
